Substitutions are numbered along the chain they refer to. Results are given in words; binding and its absence hold for the method and conditions named. Binding seen in cells or lysates may run through a third protein. Some entries that bind do so weakly or less than the wild type. Tags and fused reporters may be left off the sequences shown. One block for each molecule: values may come before it.
Assays:
[1] = target: T1, FREQUENCY (FRQ), wild type, tagged with V5H6 (Neurospora crassa) (UniProt P19970); experiment: co-IP; FRQ^V5H6 pulled down with V5 resin from Neurospora lysate; NaCl in lysis and wash buffers raised to 500 or 1000 mM; Western blot
T1 sequence: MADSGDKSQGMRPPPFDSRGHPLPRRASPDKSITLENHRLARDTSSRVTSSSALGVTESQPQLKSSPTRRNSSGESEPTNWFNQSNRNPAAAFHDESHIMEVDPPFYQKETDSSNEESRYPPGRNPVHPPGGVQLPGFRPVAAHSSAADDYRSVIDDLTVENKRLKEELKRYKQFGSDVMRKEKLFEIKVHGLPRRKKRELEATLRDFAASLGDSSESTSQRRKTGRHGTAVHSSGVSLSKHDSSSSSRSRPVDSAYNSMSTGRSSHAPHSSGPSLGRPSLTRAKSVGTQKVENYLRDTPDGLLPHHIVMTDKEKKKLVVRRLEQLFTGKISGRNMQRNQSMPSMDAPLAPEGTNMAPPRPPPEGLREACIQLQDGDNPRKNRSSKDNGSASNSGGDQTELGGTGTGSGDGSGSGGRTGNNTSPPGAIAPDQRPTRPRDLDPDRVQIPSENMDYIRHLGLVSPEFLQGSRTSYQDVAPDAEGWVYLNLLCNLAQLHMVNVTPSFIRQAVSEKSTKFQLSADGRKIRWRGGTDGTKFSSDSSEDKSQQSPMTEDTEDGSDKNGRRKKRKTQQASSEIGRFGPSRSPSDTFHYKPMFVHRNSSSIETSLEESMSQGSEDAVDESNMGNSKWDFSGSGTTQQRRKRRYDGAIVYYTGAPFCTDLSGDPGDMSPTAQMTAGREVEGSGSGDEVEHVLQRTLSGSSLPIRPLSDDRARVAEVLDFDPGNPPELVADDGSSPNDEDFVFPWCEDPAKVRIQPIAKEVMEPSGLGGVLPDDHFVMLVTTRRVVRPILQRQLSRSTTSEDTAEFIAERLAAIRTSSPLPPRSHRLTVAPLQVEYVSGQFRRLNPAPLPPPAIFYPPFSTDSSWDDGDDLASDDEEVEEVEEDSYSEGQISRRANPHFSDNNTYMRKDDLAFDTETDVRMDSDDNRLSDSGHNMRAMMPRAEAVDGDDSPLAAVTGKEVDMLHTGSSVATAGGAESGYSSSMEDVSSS

The chains behind the UniProt entries cited, without tags or fusion partners.
UniProt Q01371: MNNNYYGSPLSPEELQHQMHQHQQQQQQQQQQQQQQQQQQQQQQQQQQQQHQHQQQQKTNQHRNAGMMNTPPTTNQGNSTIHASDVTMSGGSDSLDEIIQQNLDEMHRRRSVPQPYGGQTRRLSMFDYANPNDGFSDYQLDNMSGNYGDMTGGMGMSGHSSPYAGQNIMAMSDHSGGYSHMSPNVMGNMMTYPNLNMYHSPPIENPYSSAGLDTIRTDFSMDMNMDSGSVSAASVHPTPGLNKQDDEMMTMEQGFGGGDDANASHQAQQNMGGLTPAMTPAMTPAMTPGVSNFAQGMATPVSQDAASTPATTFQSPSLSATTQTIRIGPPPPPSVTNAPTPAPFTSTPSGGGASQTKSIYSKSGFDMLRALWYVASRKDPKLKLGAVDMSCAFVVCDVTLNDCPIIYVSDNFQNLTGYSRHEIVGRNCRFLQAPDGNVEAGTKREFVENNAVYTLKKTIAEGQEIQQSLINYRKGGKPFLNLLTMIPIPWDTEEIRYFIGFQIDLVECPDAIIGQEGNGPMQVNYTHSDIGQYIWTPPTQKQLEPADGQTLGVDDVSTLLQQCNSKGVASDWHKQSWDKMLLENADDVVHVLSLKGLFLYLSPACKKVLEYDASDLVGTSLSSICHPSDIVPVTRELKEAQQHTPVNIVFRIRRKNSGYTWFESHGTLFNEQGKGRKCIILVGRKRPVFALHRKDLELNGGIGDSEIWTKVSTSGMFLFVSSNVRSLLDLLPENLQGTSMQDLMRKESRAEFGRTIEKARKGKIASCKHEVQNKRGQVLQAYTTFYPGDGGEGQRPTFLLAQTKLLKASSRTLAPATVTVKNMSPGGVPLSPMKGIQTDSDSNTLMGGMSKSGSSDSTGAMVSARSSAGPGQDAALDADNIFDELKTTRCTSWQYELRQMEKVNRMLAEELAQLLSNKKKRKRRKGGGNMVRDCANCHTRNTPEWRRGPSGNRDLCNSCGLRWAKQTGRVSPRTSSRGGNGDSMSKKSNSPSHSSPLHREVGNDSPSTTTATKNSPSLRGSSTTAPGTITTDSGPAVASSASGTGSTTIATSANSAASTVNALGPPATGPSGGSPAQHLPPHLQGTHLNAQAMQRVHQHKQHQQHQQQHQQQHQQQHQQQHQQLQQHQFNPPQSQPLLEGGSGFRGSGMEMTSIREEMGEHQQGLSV

[2] = target: T2, FRQ D862A, D866A, D867A, D869A, D870A, V5H6-tagged (Neurospora crassa) (UniProt P19970); experiment: co-IP; V5H6-tagged FRQ (wild type or mutant) pulled down with V5 agarose from Neurospora lysate (cultures in the light, 25 °C); 50 mM Hepes pH 7.4, 137 mM NaCl, 10% glycerol, 0.4% NP-40; 4 °C, 2 h; Western blot with FRQ, FRH, WC-1 and WC-2 antibodies
T2 sequence: T1 sequence with D862A, D866A, D867A, D869A, D870A

Molecule: White Collar-1 (WC-1) (from UniProt Q01371 1-1167)
binding [1]: no binding (condition: with 500 mM or 1000 mM NaCl)

binding [2]: binds weakly
B1: White Collar-2 (WC-2) (protein, UniProt P78714 1-530)
chain: MSHGQPPPGSSMYGFGAMGMGSGMGSGMGSGMGTGMGTGMGTGMSASQMTSDPQDMMSLLDTSVFPGFDGMSMSLDVGDSMSNPFTPVSVPPPLPAGNAGPSHVGVCGGHGAPDQLFSPDDLIATSMSSAGPMIATPTTTTSGPSGGPSSGGGSTLTEFTKRRNWPAKVVEELQDWEHILDANGRIKHVSPSVEPLTGYKPPEIIDLFLRDLIHPDDVGVFTAELNEAIATGSQLRLFYRFRKKDGNWTIFETVGHAHIAAAKFAPNPQNQSPFCQAVFMMARPYPTKNAGLLDSFLEHKIENERLKRRIAELRREEQEEQEESHRTWRMSQEGRSDVTPSDDTATQMGMTPFYIPMNAQADVMMPPPSQPASSLNIALTRENLEGIAGSRPDSIREKMLRYEGNHADTIEMLTGLKYQEGERSHGITTGNASPTLIKGDAGIAIPLDRDPRTGEKKKKIKVAEEYVCTDCGTLDSPEWRKGPSGPKTLCNACGLRWAKKEKKKNANNNNNGGGIGGHNDIHTPMGDHMG
binding [1]: no binding (condition: with 500 mM or 1000 mM NaCl)

binding [1]: binds | binding [2]: binds
B2: FRQ-interacting RNA helicase (FRH) (protein, UniProt Q1K502 1-1106)
chain: MDDLFEVFEEQPRAQKKRKASPDVEMADGAAAAAPVANAAAAVTHPQAQAAPAPQKDNIDNNDNNNNNTTTSAVQPTIPNGDAAAAADDVQSPQSPHGLGDNKRRKKTDEAEPIMTDAFQTAESREVTGAQGFAPTEGESIVLSHNIQHQVALPPDLDYEYIPLSEHKPPAEPARTYSFKLDPFQALSVASIEREESVLVSAHTSAGKTVVAEYAIAQCLKKNQRVIYTSPIKALSNQKYRDFQAEFGDVGLMTGDVTINPTASCLVMTTEILRSMLYRGSEIMREVAWVVFDEIHYMRDKIRGVVWEETIILLPDKVRYVFLSATIPNAFQFAEWIAKIHRQACHVVYTDFRPTPLQNYFFPAGGKGILLIVDEKGNFKENNFNQAMAMIEEKKGTDSNDWSAKQKGKGKNKKTNKGGEAADEKADIAKIIKMILKKNFQPVIVFNFSKRECEQMALASSSMKFNAPDEENMVNKVFENALASLSEDDKNLPQISNILPLLRKGIGVHHSGLLPILKETIEILFQEGLIKVLFATETFSIGLNMPARTVVFTQVTKWDGQQRRPLTSSEYIQMAGRAGRRGLDDRGIVIMMVDDKLEPETARAIVVGNQDKLNSAFHLGYNMVLNLLRIEAISPEYMLERCFFQFQNAASVPQLERELISLQQERDAIIIPDESIVKDYYGVRQQLEEYNKDMVFVIQHPQNCLGFFQEGRLIHIKSPSGVDYGWGVLIKHIQRQTPKNGQPPYPEQESYVLDVLLKVSGDFNPKTRGEGPMPEGIMPAGKDSKNARWEVVPCLLNCLRALGQLRVFLPKRLESADEKDGVGKAVDEISRRFPDGIPILDPMENMGINDDSFKKLLRKIEVLESRLVANPLHNSPLLVELWNQYSLKMQLGEQIKEKKKAIARAHSVAQLDELKSRKRVLRRLGFINDAEVVQMKARVACEISSTEGHELLLAELLFNRFFNELSPEICACILSCFIFDEKIETQALKEELAKPFREIQAQARIIAKVSAESKLDVNEDEYVQSLKWQLMETVLAWAQGRPFSEICKMTNVYEGSLIRLFRRLEELLRQMAEAARVMGSEELKDKFELSLSKIRRDIVSFNSLYL
